Measured values: patent publication US5807535A, “Metal complexes of hydroxyaryl containing aminocarboxylic acid chelating agents” (Australian Nuclear Science & Technology Organisation, priority 1992, dated 1998)
Further values from the same series stand in other lists.

Columns and labels:
[1] = Biodistribution of 67Ga complexes in mice; assay type: in vivo, balb/c mice
Outline: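 Ligand labelled with 67Ga citrate at pH 12, 40 °C for 40 min, diluted in saline and filter-sterilised. Balb/c mice given ~3.7×10^5 Bq intravenously via tail vein; five animals sacrificed at each of six time points.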

[2] = Biodistribution of 99mTc complexes in mice; assay type: in vivo, Balb/c mice
From the text: A series of derivatives incorporating carboxyl and phenolate donor groups (1-6) were synthesised by literature method and their radiolabelling characteristic and biological behaviour evaluated. Initial work involved an investigation of radiochemical properties of the ^99m Tc complexes of the ligands and their biodistribution in rats and mice (see Tables 1-6 and 8-12).
A typical method of radiolabelling of the chelator was achieved by dissolving the chelator in a basic solution of saline. The pH was then adjusted to approx. 6 with HCl. Excess stannous chloride was added to the resultant solution followed by one equivalent volume of sodium ^99m TcO4 (10-50 mCi/ml). Final concentration of the chelator was approx. 1 mg/ml. The efficacy of labelling was determined by ITLC-SG. For each product only one main radiochemical species was observed. Each complex was diluted to 15 μCi/100 μl with saline. […] (See FIGS. 1A and 1B).

`Nc1ccc(O)c(NC(=O)CN(CCN(CC(=O)O)CC(=O)Nc2cc(N)ccc2O)CC(=O)O)c1` [Compound 5] gave a biodistribution bladder ([1]; 1 min) of 0.48 % ID, a biodistribution blood ([1]; 1 min) of 17.48 % ID and a biodistribution bone ([1]; 1 min) of 4.85 % ID. The biodistribution caecum ([1]; 1 min) was 0.36 % ID, the biodistribution colon ([1]; 1 min) was 0.59 % ID and the biodistribution duodenum ([1]; 1 min) was 0.12 % ID. It also gave a biodistribution heart ([1]; 1 min) of 0.35 % ID, a biodistribution ileum ([1]; 1 min) of 0.32 % ID and a biodistribution jejunum ([1]; 1 min) of 0.81 % ID. The biodistribution kidney ([1]; 1 min) was 8.39 % ID, the biodistribution liver ([1]; 1 min) was 3.08 % ID and the biodistribution lungs ([1]; 1 min) was 1.15 % ID. For the same compound, the biodistribution muscle ([1]; 1 min) was 23.50 % ID, the biodistribution pancreas ([1]; 1 min) was 0.36 % ID and the biodistribution salivary gl ([1]; 1 min) was 0.29 % ID. The biodistribution skin ([1]; 1 min) was 20.79 % ID, the biodistribution spleen ([1]; 1 min) was 0.18 % ID and the “biodistribution stomach GL” value ([1]; 1 min) was 0.27 % ID. The “biodistribution stomach SQ” value ([1]; 1 min) was 0.08 % ID, the biodistribution testes ([1]; 1 min) was 0.25 % ID and the biodistribution bladder ([1]; 3 min) was 0.62 % ID. The biodistribution blood ([1]; 3 min) was 12.82 % ID, the biodistribution bone ([1]; 3 min) was 5.90 % ID and the biodistribution caecum ([1]; 3 min) was 0.26 % ID. For the same compound, the biodistribution colon ([1]; 3 min) was 0.53 % ID, the biodistribution duodenum ([1]; 3 min) was 0.10 % ID and the biodistribution heart ([1]; 3 min) was 0.27 % ID. For the same compound, the biodistribution ileum ([1]; 3 min) was 0.20 % ID, the biodistribution jejunum ([1]; 3 min) was 0.61 % ID and the biodistribution kidney ([1]; 3 min) was 5.78 % ID. It also gave a biodistribution liver ([1]; 3 min) of 3.02 % ID, a biodistribution lungs ([1]; 3 min) of 0.89 % ID and a biodistribution muscle ([1]; 3 min) of 19.47 % ID. It also gave a biodistribution pancreas ([1]; 3 min) of 0.19 % ID, a biodistribution salivary gl ([1]; 3 min) of 0.28 % ID and a biodistribution skin ([1]; 3 min) of 21.98 % ID. For the same compound, the biodistribution spleen ([1]; 3 min) was 0.15 % ID, the “biodistribution stomach GL” value ([1]; 3 min) was 0.17 % ID and the “biodistribution stomach SQ” value ([1]; 3 min) was 0.10 % ID. It also gave a biodistribution testes ([1]; 3 min) of 0.25 % ID, a biodistribution bladder ([1]; 5 min) of 0.47 % ID and a biodistribution blood ([1]; 5 min) of 8.06 % ID. For the same compound, the biodistribution bone ([1]; 5 min) was 4.51 % ID, the biodistribution caecum ([1]; 5 min) was 0.31 % ID and the biodistribution colon ([1]; 5 min) was 0.37 % ID. For the same compound, the biodistribution duodenum ([1]; 5 min) was 0.05 % ID, the biodistribution heart ([1]; 5 min) was 0.19 % ID and the biodistribution ileum ([1]; 5 min) was 0.18 % ID. The biodistribution jejunum ([1]; 5 min) was 0.46 % ID, the biodistribution kidney ([1]; 5 min) was 3.17 % ID and the biodistribution liver ([1]; 5 min) was 2.04 % ID. For the same compound, the biodistribution lungs ([1]; 5 min) was 0.76 % ID, the biodistribution muscle ([1]; 5 min) was 20.11 % ID and the biodistribution pancreas ([1]; 5 min) was 0.16 % ID. The biodistribution salivary gl ([1]; 5 min) was 0.16 % ID, the biodistribution skin ([1]; 5 min) was 18.72 % ID and the biodistribution spleen ([1]; 5 min) was 0.10 % ID. The “biodistribution stomach GL” value ([1]; 5 min) was 0.11 % ID, the “biodistribution stomach SQ” value ([1]; 5 min) was 0.10 % ID and the biodistribution testes ([1]; 5 min) was 0.32 % ID. It also gave a biodistribution bladder ([1]; 10 min) of 0.10 % ID, a biodistribution blood ([1]; 10 min) of 2.86 % ID and a biodistribution bone ([1]; 10 min) of 21.3 % ID. For the same compound, the biodistribution caecum ([1]; 10 min) was 0.09 % ID, the biodistribution colon ([1]; 10 min) was 0.11 % ID and the biodistribution duodenum ([1]; 10 min) was 0.03 % ID. The biodistribution heart ([1]; 10 min) was 0.07 % ID, the biodistribution ileum ([1]; 10 min) was 0.08 % ID and the biodistribution jejunum ([1]; 10 min) was 0.29 % ID. The biodistribution kidney ([1]; 10 min) was 2.39 % ID, the biodistribution liver ([1]; 10 min) was 1.22 % ID and the biodistribution lungs ([1]; 10 min) was 0.22 % ID. For the same compound, the biodistribution muscle ([1]; 10 min) was 4.58 % ID, the biodistribution pancreas ([1]; 10 min) was 0.05 % ID and the biodistribution salivary gl ([1]; 10 min) was 0.06 % ID. For the same compound, the biodistribution skin ([1]; 10 min) was 10.65 % ID, the biodistribution spleen ([1]; 10 min) was 0.05 % ID and the “biodistribution stomach GL” value ([1]; 10 min) was 0.04 % ID. For the same compound, the “biodistribution stomach SQ” value ([1]; 10 min) was 0.03 % ID, the biodistribution testes ([1]; 10 min) was 0.08 % ID and the biodistribution bladder ([1]; 30 min) was 1.04 % ID. The biodistribution blood ([1]; 30 min) was 1.16 % ID, the biodistribution bone ([1]; 30 min) was 1.69 % ID and the biodistribution caecum ([1]; 30 min) was 0.04 % ID. For the same compound, the biodistribution colon ([1]; 30 min) was 0.05 % ID, the biodistribution duodenum ([1]; 30 min) was 0.02 % ID and the biodistribution heart ([1]; 30 min) was 0.04 % ID. It also gave a biodistribution ileum ([1]; 30 min) of 0.07 % ID, a biodistribution jejunum ([1]; 30 min) of 0.18 % ID and a biodistribution kidney ([1]; 30 min) of 1.72 % ID. For the same compound, the biodistribution liver ([1]; 30 min) was 1.33 % ID, the biodistribution lungs ([1]; 30 min) was 0.16 % ID and the biodistribution muscle ([1]; 30 min) was 2.65 % ID. It also gave a biodistribution pancreas ([1]; 30 min) of 0.05 % ID, a biodistribution salivary gl ([1]; 30 min) of 0.04 % ID and a biodistribution skin ([1]; 30 min) of 5.12 % ID. For the same compound, the biodistribution spleen ([1]; 30 min) was 0.03 % ID, the “biodistribution stomach GL” value ([1]; 30 min) was 0.03 % ID and the “biodistribution stomach SQ” value ([1]; 30 min) was 0.02 % ID. For the same compound, the biodistribution tail ([1]; 30 min) was 0.86 % ID, the biodistribution testes ([1]; 30 min) was 0.10 % ID and the biodistribution bladder ([1]; 120 min) was 0.32 % ID. The biodistribution blood ([1]; 120 min) was 0.65 % ID, the biodistribution bone ([1]; 120 min) was 0.80 % ID and the biodistribution caecum ([1]; 120 min) was 0.03 % ID. It also gave a biodistribution colon ([1]; 120 min) of 0.05 % ID, a biodistribution duodenum ([1]; 120 min) of 0.01 % ID and a biodistribution heart ([1]; 120 min) of 0.03 % ID. It also gave a biodistribution ileum ([1]; 120 min) of 0.06 % ID, a biodistribution jejunum ([1]; 120 min) of 0.09 % ID and a biodistribution kidney ([1]; 120 min) of 1.60 % ID. It also gave a biodistribution liver ([1]; 120 min) of 0.86 % ID, a biodistribution lungs ([1]; 120 min) of 0.10 % ID and a biodistribution muscle ([1]; 120 min) of 1.44 % ID. It also gave a biodistribution pancreas ([1]; 120 min) of 0.01 % ID, a biodistribution salivary gl ([1]; 120 min) of 0.03 % ID and a biodistribution skin ([1]; 120 min) of 2.82 % ID. For the same compound, the biodistribution spleen ([1]; 120 min) was 0.02 % ID, the “biodistribution stomach GL” value ([1]; 120 min) was 0.02 % ID and the “biodistribution stomach SQ” value ([1]; 120 min) was 0.01 % ID. For the same compound, the biodistribution tail ([1]; 120 min) was 0.64 % ID, the biodistribution testes ([1]; 120 min) was 0.05 % ID and the “biodistribution GIT” value ([2]; 1 min) was 3.89 % Injected dose. The biodistribution bladder ([2]; 1 min) was 0.09 % Injected dose, the biodistribution blood ([2]; 1 min) was 26.59 % Injected dose and the biodistribution heart ([2]; 1 min) was 0.61 % Injected dose. It also gave a biodistribution lungs ([2]; 1 min) of 1.64 % Injected dose, a biodistribution stomach ([2]; 1 min) of 0.65 % Injected dose and a biodistribution tail ([2]; 1 min) of 2.65 % Injected dose. The “biodistribution GIT” value ([2]; 3 min) was 3.22 % Injected dose, the biodistribution bladder ([2]; 3 min) was 1.16 % Injected dose and the biodistribution blood ([2]; 3 min) was 14.84 % Injected dose. For the same compound, the biodistribution bone ([2]; 3 min) was 4 % Injected dose, the biodistribution heart ([2]; 3 min) was 0.43 % Injected dose and the biodistribution lungs ([2]; 3 min) was 1.65 % Injected dose. The biodistribution stomach ([2]; 3 min) was 0.56 % Injected dose, the biodistribution tail ([2]; 3 min) was 4.28 % Injected dose and the “biodistribution GIT” value ([2]; 5 min) was 2.42 % Injected dose. It also gave a biodistribution bladder ([2]; 5 min) of 2.15 % Injected dose, a biodistribution blood ([2]; 5 min) of 10.06 % Injected dose and a biodistribution bone ([2]; 5 min) of 2.79 % Injected dose. The biodistribution heart ([2]; 5 min) was 0.26 % Injected dose, the biodistribution lungs ([2]; 5 min) was 1.28 % Injected dose and the biodistribution stomach ([2]; 5 min) was 0.4 % Injected dose. The biodistribution tail ([2]; 5 min) was 11.55 % Injected dose, the “biodistribution GIT” value ([2]; 10 min) was 3.94 % Injected dose and the biodistribution bladder ([2]; 10 min) was 1.04 % Injected dose. For the same compound, the biodistribution blood ([2]; 10 min) was 12.87 % Injected dose, the biodistribution bone ([2]; 10 min) was 2.98 % Injected dose and the biodistribution heart ([2]; 10 min) was 0.23 % Injected dose. It also gave a biodistribution lungs ([2]; 10 min) of 1.1 % Injected dose, a biodistribution stomach ([2]; 10 min) of 0.63 % Injected dose and a biodistribution tail ([2]; 10 min) of 6.98 % Injected dose. The “biodistribution GIT” value ([2]; 30 min) was 4.61 % Injected dose, the biodistribution bladder ([2]; 30 min) was 0.83 % Injected dose and the biodistribution blood ([2]; 30 min) was 3.98 % Injected dose. It also gave a biodistribution bone ([2]; 30 min) of 1.86 % Injected dose, a biodistribution heart ([2]; 30 min) of 0.12 % Injected dose and a biodistribution lungs ([2]; 30 min) of 0.46 % Injected dose. For the same compound, the biodistribution stomach ([2]; 30 min) was 0.49 % Injected dose and the biodistribution tail ([2]; 30 min) was 2.01 % Injected dose.
